Source: BigSolDB 2.1

Nc1ccc(S(N)(=O)=O)cc1
solubility (mole fraction) (in 1,4-dioxane, 293.15 K): 0.0789
solubility (mole fraction) (in 1,4-dioxane, 303.15 K): 0.101
solubility (mole fraction) (in 1,4-dioxane, 308.15 K): 0.105
solubility (mole fraction) (in 1,4-dioxane, 313.15 K): 0.115
solubility (mole fraction) (in 1,4-dioxane, 323.15 K): 0.143
solubility (mole fraction) (in DMF, 293.15 K): 0.0187
solubility (mole fraction) (in DMF, 303.15 K): 0.0253
solubility (mole fraction) (in DMF, 308.15 K): 0.0322
solubility (mole fraction) (in DMF, 313.15 K): 0.0427
solubility (mole fraction) (in DMF, 323.15 K): 0.0617
solubility (mole fraction) (in DMSO, 293.15 K): 0.0127
solubility (mole fraction) (in DMSO, 303.15 K): 0.0172
solubility (mole fraction) (in DMSO, 308.15 K): 0.0207
solubility (mole fraction) (in DMSO, 313.15 K): 0.0246
solubility (mole fraction) (in DMSO, 323.15 K): 0.033
solubility (mole fraction) (in acetonitrile, 293.15 K): 0.00367
solubility (mole fraction) (in acetonitrile, 303.15 K): 0.00512
solubility (mole fraction) (in acetonitrile, 308.15 K): 0.00757
solubility (mole fraction) (in acetonitrile, 313.15 K): 0.0113
solubility (mole fraction) (in acetonitrile, 323.15 K): 0.0169
solubility (mole fraction) (in ethanol, 293.15 K): 0.00729
solubility (mole fraction) (in ethanol, 303.15 K): 0.0114
solubility (mole fraction) (in ethanol, 308.15 K): 0.0148
solubility (mole fraction) (in ethanol, 313.15 K): 0.019
solubility (mole fraction) (in ethanol, 323.15 K): 0.0268
solubility (mole fraction) (in water, 293.15 K): 0.000692
solubility (mole fraction) (in water, 303.15 K): 0.00114
solubility (mole fraction) (in water, 308.15 K): 0.00147
solubility (mole fraction) (in water, 313.15 K): 0.00187
solubility (mole fraction) (in water, 323.15 K): 0.00241
